Assay results taken from the supplement of paper PMC3334620.
Over roughly 33,000 sequences, “E-score (-0.5 to 0.5)” has its median near -0.035; the highest 2% begin near 0.34. The list shows a part of the results.

The sequences below were run against T1, Mot3 (UniProt P54785) (assay: PBM E-score (8-mer binding enrichment) (E-score (-0.5 to 0.5)); higher = stronger / more preferred TF binding; most listed sequences are background and not binding sites). Conditions: protein concentration: 200 nM; construct: GST-full length.
T1 sequence: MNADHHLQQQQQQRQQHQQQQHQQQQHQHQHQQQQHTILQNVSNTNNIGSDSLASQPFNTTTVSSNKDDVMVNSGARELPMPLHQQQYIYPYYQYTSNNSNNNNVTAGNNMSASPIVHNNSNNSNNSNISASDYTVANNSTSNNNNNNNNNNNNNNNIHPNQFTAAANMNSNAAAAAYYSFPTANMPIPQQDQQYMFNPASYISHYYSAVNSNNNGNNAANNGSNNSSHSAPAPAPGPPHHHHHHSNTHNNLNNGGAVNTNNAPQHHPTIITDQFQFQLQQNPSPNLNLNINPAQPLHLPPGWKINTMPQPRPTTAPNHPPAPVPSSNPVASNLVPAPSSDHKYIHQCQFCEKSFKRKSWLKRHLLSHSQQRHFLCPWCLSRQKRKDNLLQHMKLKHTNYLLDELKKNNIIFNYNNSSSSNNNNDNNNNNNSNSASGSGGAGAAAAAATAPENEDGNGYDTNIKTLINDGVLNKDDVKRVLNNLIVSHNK
In short: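 Yeast transcription factors, full-length or as DNA-binding domains, were expressed with a GST tag using PURExpress in vitro transcription/translation. At about 100-200 nM they were applied to universal all-10-mer Agilent arrays, double-stranded by primer extension on fresh or once-stripped slides. Fluorescent anti-GST detected bound protein, and masliner normalised the scans. E-scores for ungapped eight-base words, pooled with reverse complements, came from the Universal PBM Analysis Suite.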

Sequence | PBM E-score
GAGGGCCC | -0.321
AAGCGCCT | 0.0724
GCATTGGC | -0.0872
TAGGCATA | 0.28
CGAATTTA | 0.144
ACCCCTGC | -0.197
GCAATGTA | 0.249
CACTTTGA | -0.208
TGGTACAA | 0.0168
ACTAATCC | -0.0354
CGGGAGGC | -0.163
ATTGGATC | -0.235
CTGAGTTA | -0.0326
AACCGCGG | -0.171
GCCTGCCC | 0.073
TATTATGA | 0.0627
CCTACAAC | 0.194
GCACGTCA | 0.0204
ATTTGTAG | 0.0961
GCCACACC | -0.193
ATCACGTA | 0.226
AGGGTGGG | -0.14
ACGCGTGC | 0.291
ACCAAAGC | -0.044
AGCCAACA | 0.0235

Sequence | PBM E-score
AGAGCGAT | -0.161
ATCTCAGG | 0.0363
AGCCGGCA | -0.286
ATGATTTG | -0.025
CATGTTAG | 0.332
TAATCCGA | -0.0977
CTTAAAAG | -0.0735
CGAGATAG | -0.256
ACAAGATG | 0.134
ATTCGCAG | 0.0372
ACAAGGAG | 0.175
AAGTTAGA | 0.128
AACGGCTG | -0.304
AAATTGGC | -0.118
AAGCCACG | -0.0353
AGCGCGAG | -0.184
CCATACAC | -0.067
ACCTGTAA | 0.275
CCCAGTAA | 0.0177
TCGAAGAA | -0.00988
ACAGAAAT | 0.0316
ACATCGAG | 0.0644
TTGTAAAA | 0.321
GCGTTAAC | 0.265
CTTTATGC | 0.0187

Sequence | PBM E-score
ACTATCTG | -0.237
AAGTGCAT | 0.204
CCCTCCAA | -0.308
ACCAGAAA | -0.0509
AGGCTCAT | 0.22
AAGCCCGA | -0.157
AATAAGAC | 0.0558
CGTCTAGC | -0.0211
CCCGCCTA | 0.0235
GGATTAAC | 0.112
ACACAATC | 0.245
ATCGACCA | -0.099
CGAGAATC | -0.172
CAGACGGG | -0.277
AGGATTGC | -0.0652
AAATCCCG | -0.246
TGATTGCA | 0.115
ACCCGCAC | -0.259
CAGGGATC | -0.258
GACAAATA | 0.123
AGGACTCG | -0.159
CCCCACGC | -0.26
ATGAGCCA | -0.168
CGCCGCTC | -0.205
ATGATATC | -0.149

Sequence | PBM E-score
ATCGGCTC | -0.0503
ACTTCGAG | 0.0127
GGTGCCAA | -0.14
ACACTTGG | -0.0239
AGAATTCC | -0.0646
GACCTTGA | -0.0632
AGACGTTA | 0.107
AGGTAGGG | -0.0491
AAACATCA | 0.294
ACGTTGAA | 0.286
ATGCAACC | -0.00161
GCTACAAA | -4e-05
TGTCAGAA | 0.155
AAGTTCGG | -0.0501
AAGAGATG | 0.143
CTGGACCA | -0.125
CACTATTC | 0.00889
CATGCACG | 0.054
AAGGATGA | 0.0473
GCACATAC | -0.0686
ACGTCTCA | 0.0786
ACGGTTTC | -0.065
CCGCAAAG | -0.212
GCCCGATA | -0.181
CACGTGAG | 0.0779

Sequence | PBM E-score
AGGAGCAA | -0.19
AGTATGCC | 0.013
CATGGATC | -0.164
CTAGCTCA | -0.185
GATAGTTA | 0.0132
AATTCGAA | -0.00868
CTGGTCGA | -0.114
CCGTCACG | -0.237
ACGTCAGC | 0.0495
AGCCAATC | -0.213
GCTATGAC | -0.229
AGGGCCAA | -0.294
GAGTGGAA | -0.205
AATGCGAT | -0.0483
ACAGACGA | 0.0084
AATCCAGG | 0.0903
CGTAGTAA | 0.18
AAGATATG | 0.127
GAAGGCAA | 0.489
CCAAAGGC | 0.145
ACCTAGCA | 0.0477
TCCGAGCA | 0.104
TGGCCCAA | -0.311
CCACGGCG | -0.165
CTGTCGAC | 0.123

Sequence | PBM E-score
GTTAATAA | 0.151
GCAAGACA | 0.0193
ATTCTAGA | -0.0354
ACGTCGTA | 0.017
CCGGTGGA | -0.358
ACGAGTGG | -0.115
AGTGATTG | -0.11
ACAGTCGC | -0.068
ACGACACT | 0.0691
AGCCCATC | -0.217
CCGACCAA | 0.0242
GGGCAGCA | -0.128
AGGCTCGA | 0.101
CCACTCTC | -0.237
ACGCGCTA | 0.155
ATCTGCGC | -0.0863
GCATGCAA | 0.116
TAAAACCA | 0.0571
CTTCAGTA | 0.0374
CTGCAGCA | -0.0262
CGCCGCCC | -0.209
CAGGCAAG | 0.491
AAACACTG | 0.196
AACGGTCT | -0.13
GGACGCCC | -0.128

Sequence | PBM E-score
CAGGTCAA | -0.0137
TGGTGAAA | 0.0172
CGATCATA | -0.0872
GAGGAAAA | 0.0527
AAGGTAGG | 0.0935
CCAGGTCG | -0.0402
ATAGTGTG | -0.0895
GAACCAGC | -0.11
GCACCTGC | 0.125
CTAACTTA | 0.105
ACCTAAAT | 0.084
CACGGATC | 0.0149
GGGTCTAC | -0.19
CTGTTAGA | -0.081
GGATAGCA | -0.0171
CTTCCTAC | -0.0906
GGTCAGGA | -0.0849
AAAGCCAT | 0.083
CGCATTCC | -0.29
ATCTCAGC | -0.189
TACCGACA | 0.0238
AAATGGTC | -0.223
